# Laboratory results from the supplement of paper PMC8728848.
# The other results are listed elsewhere or left out.
# B1: CrataBL (Crataeva tapia), C0HJA4 (protein)
# chain: AILTGVPYYILPSTSRAGFSPDNLRKNTSQLSCPLDLITQLRFPRRIGVPVIFTPQNSSLKVVPLSHNLNIHTCSDLWFCPESKIWTVKSSLTHGGSVVTTGGTFRSLGSWFRIERHGDSYKLVHCPRGSTPCRDVGIETVGGGGRRYLAPRDRPLAVRFTRASG
# How the values were obtained:
# Experiment in all cases: glycan array binding signal (z-score within array); higher = stronger binding
# Conditions in all cases: glycan notation: IUPAC condensed, linker removed
# [1] = target: Fuc(a1-2)Gal(b1-4)GlcNAc(b1-3)Gal(b1-4)GlcNAc(b1-2)Man(a1-3)[Fuc(a1-2)Gal(b1-4)GlcNAc(b1-3)Gal(b1-4)GlcNAc(b1-2)Man(a1-6)]Man(b1-4)GlcNAc(b1-4)GlcNAc
# Method in brief: (§1)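 Glycan array binding is given as a within-array Z-score, which can be read as non-binding when negative. The arrays, 3228 of them, came from the Consortium for Functional Glycomics database and were retained only where the protein sequence was available. Z-scores were averaged across arrays of the same protein sequence at different concentrations or buffers and across linkers.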
# [2] = target: Fuc(a1-2)Gal(b1-4)GlcNAc(b1-3)Gal(b1-4)GlcNAc(b1-3)Gal(b1-4)GlcNAc
# Method in brief: as §1
# [3] = target: Fuc(a1-2)Gal(b1-4)GlcNAc(b1-3)GalNAc
# Method in brief: as §1
# [4] = target: Fuc(a1-2)Gal(b1-4)GlcNAc(b1-3)[Fuc(a1-2)Gal(b1-4)GlcNAc(b1-6)]GalNAc
# Method in brief: as §1
# [5] = target: Fuc(a1-2)Gal(b1-4)GlcNAc(b1-3)[Fuc(a1-3)[Gal(b1-4)]GlcNAc(b1-6)]Gal(b1-4)Glc
# Method in brief: as §1
# [6] = target: Fuc(a1-2)Gal(b1-4)GlcNAc(b1-6)GalNAc
# Method in brief: as §1
# [7] = target: Fuc(a1-2)Gal(b1-4)GlcNAc6S
# Method in brief: as §1
# [8] = target: Fuc(a1-2)Gal(b1-4)[Fuc(a1-3)]GlcNAc
# Method in brief: as §1
# [9] = target: Fuc(a1-2)Gal(b1-4)[Fuc(a1-3)]GlcNAc(b1-2)Man(a1-3)[Fuc(a1-2)Gal(b1-4)[Fuc(a1-3)]GlcNAc(b1-2)Man(a1-6)]Man(b1-4)GlcNAc(b1-4)[Fuc(a1-6)]GlcNAc
# Method in brief: as §1
# [10] = target: Fuc(a1-2)Gal(b1-4)[Fuc(a1-3)]GlcNAc(b1-2)[Fuc(a1-2)Gal(b1-4)[Fuc(a1-3)]GlcNAc(b1-4)]Man(a1-3)[Fuc(a1-2)Gal(b1-4)[Fuc(a1-3)]GlcNAc(b1-2)Man(a1-6)]Man(b1-4)GlcNAc(b1-4)GlcNAc
# Method in brief: as §1
# [11] = target: Fuc(a1-2)Gal(b1-4)[Fuc(a1-3)]GlcNAc(b1-3)Gal(b1-4)[Fuc(a1-3)]GlcNAc
# Method in brief: as §1
# [12] = target: Fuc(a1-2)Gal(b1-4)[Fuc(a1-3)]GlcNAc(b1-3)Gal(b1-4)[Fuc(a1-3)]GlcNAc(b1-3)Gal(b1-4)[Fuc(a1-3)]GlcNAc
# Method in brief: as §1
# [13] = target: Fuc(a1-2)Gal(b1-4)[Fuc(a1-3)]GlcNAc(b1-3)GalNAc
# Method in brief: as §1
# [14] = target: Fuc(a1-2)Gal(b1-4)[Fuc(a1-3)]GlcNAc(b1-3)[Neu5Ac(a2-6)Gal(b1-4)GlcNAc(b1-6)]Gal(b1-4)Glc
# Method in brief: as §1
# [15] = target: Fuc(a1-2)Gal3S(b1-4)GlcNAc
# Method in brief: as §1
# [16] = target: Fuc(a1-2)Gal6S(b1-3)GlcNAc
# Method in brief: as §1
# [17] = target: Fuc(a1-2)Gal6S(b1-3)GlcNAc6S
# Method in brief: as §1
# Fuc(a1-2)Gal6S(b1-4)Glc = target: Fuc(a1-2)Gal6S(b1-4)Glc
# Method in brief: as §1
# [18] = target: Fuc(a1-2)Gal6S(b1-4)Glc6S
# Method in brief: as §1
# Fuc(a1-2)[Gal(a1-3)]Gal = target: Fuc(a1-2)[Gal(a1-3)]Gal
# Method in brief: as §1
# [19] = target: Fuc(a1-2)[Gal(a1-3)]Gal(b1-3)GalNAc
# Method in brief: as §1
# [20] = target: Fuc(a1-2)[Gal(a1-3)]Gal(b1-3)GalNAc(b1-3)Gal(a1-4)Gal(b1-4)Glc
# Method in brief: as §1
# [21] = target: Fuc(a1-2)[Gal(a1-3)]Gal(b1-3)GlcNAc
# Method in brief: as §1
# [22] = target: Fuc(a1-2)[Gal(a1-3)]Gal(b1-3)GlcNAc(b1-2)Man(a1-3)[Fuc(a1-2)[Gal(a1-3)]Gal(b1-3)GlcNAc(b1-2)Man(a1-6)]Man(b1-4)GlcNAc(b1-4)GlcNAc
# Method in brief: as §1
# [23] = target: Fuc(a1-2)[Gal(a1-3)]Gal(b1-3)GlcNAc(b1-2)Man(a1-3)[Fuc(a1-2)[Gal(a1-3)]Gal(b1-3)GlcNAc(b1-2)Man(a1-6)]Man(b1-4)GlcNAc(b1-4)[Fuc(a1-6)]GlcNAc
# Method in brief: as §1
# [24] = target: Fuc(a1-2)[Gal(a1-3)]Gal(b1-3)GlcNAc(b1-3)GalNAc
# Method in brief: as §1
# [25] = target: Fuc(a1-2)[Gal(a1-3)]Gal(b1-3)GlcNAc(b1-6)GalNAc
# Method in brief: as §1
# [26] = target: Fuc(a1-2)[Gal(a1-3)]Gal(b1-4)Glc
# Method in brief: as §1
# [27] = target: Fuc(a1-2)[Gal(a1-3)]Gal(b1-4)GlcNAc
# Method in brief: as §1
# [28] = target: Fuc(a1-2)[Gal(a1-3)]Gal(b1-4)GlcNAc(b1-2)Man
# Method in brief: as §1
# [29] = target: Fuc(a1-2)[Gal(a1-3)]Gal(b1-4)GlcNAc(b1-2)Man(a1-3)[Fuc(a1-2)[Gal(a1-3)]Gal(b1-4)GlcNAc(b1-2)Man(a1-6)]Man(b1-4)GlcNAc(b1-4)GlcNAc
# Method in brief: as §1
# [30] = target: Fuc(a1-2)[Gal(a1-3)]Gal(b1-4)GlcNAc(b1-2)Man(a1-3)[Fuc(a1-2)[Gal(a1-3)]Gal(b1-4)GlcNAc(b1-2)Man(a1-6)]Man(b1-4)GlcNAc(b1-4)[Fuc(a1-6)]GlcNAc
# Method in brief: as §1
# [31] = target: Fuc(a1-2)[Gal(a1-3)]Gal(b1-4)GlcNAc(b1-3)GalNAc
# Method in brief: as §1
# [32] = target: Fuc(a1-2)[Gal(a1-3)]Gal(b1-4)GlcNAc(b1-3)[Fuc(a1-2)[Gal(a1-3)]Gal(b1-4)GlcNAc(b1-6)]GalNAc
# Method in brief: as §1
# [33] = target: Fuc(a1-2)[Gal(a1-3)]Gal(b1-4)GlcNAc(b1-6)GalNAc
# Method in brief: as §1
# [34] = target: Fuc(a1-2)[Gal(a1-3)]Gal(b1-4)[Fuc(a1-3)]Glc
# Method in brief: as §1
# [35] = target: Fuc(a1-2)[Gal(a1-3)]Gal(b1-4)[Fuc(a1-3)]GlcNAc
# Method in brief: as §1
# [36] = target: Fuc(a1-2)[Gal(a1-3)]Gal(b1-4)[Fuc(a1-3)]GlcNAc(b1-3)GalNAc
# Method in brief: as §1
# [37] = target: Fuc(a1-2)[Gal(a1-4)]Gal(b1-4)GlcNAc
# Method in brief: as §1
# [38] = target: Fuc(a1-2)[GalNAc(a1-3)]Gal
# Method in brief: as §1
# [39] = target: Fuc(a1-2)[GalNAc(a1-3)]Gal(b1-3)GalNAc(a1-3)[Fuc(a1-2)]Gal(b1-4)GlcNAc
# Method in brief: as §1
# [40] = target: Fuc(a1-2)[GalNAc(a1-3)]Gal(b1-3)GalNAc(b1-3)Gal(a1-4)Gal(b1-4)Glc
# Method in brief: as §1
# [41] = target: Fuc(a1-2)[GalNAc(a1-3)]Gal(b1-3)GlcNAc
# Method in brief: as §1
# [42] = target: Fuc(a1-2)[GalNAc(a1-3)]Gal(b1-3)GlcNAc(b1-2)Man(a1-3)[Fuc(a1-2)[GalNAc(a1-3)]Gal(b1-3)GlcNAc(b1-2)Man(a1-6)]Man(b1-4)GlcNAc(b1-4)GlcNAc
# Method in brief: as §1
# [43] = target: Fuc(a1-2)[GalNAc(a1-3)]Gal(b1-3)GlcNAc(b1-2)Man(a1-3)[Fuc(a1-2)[GalNAc(a1-3)]Gal(b1-3)GlcNAc(b1-2)Man(a1-6)]Man(b1-4)GlcNAc(b1-4)[Fuc(a1-6)]GlcNAc
# Method in brief: as §1
binder,measurement,setting,value
B1,glycan array binding signal (z-score),[1],-0.291
same,glycan array binding signal (z-score),[2],-0.524
same,glycan array binding signal (z-score),[3],-0.311
same,glycan array binding signal (z-score),[4],-0.345
same,glycan array binding signal (z-score),[5],-0.263
same,glycan array binding signal (z-score),[6],0.232
same,glycan array binding signal (z-score),[7],-0.334
same,glycan array binding signal (z-score),[8],-0.238
same,glycan array binding signal (z-score),[9],-0.206
same,glycan array binding signal (z-score),[10],-0.469
same,glycan array binding signal (z-score),[11],-0.232
same,glycan array binding signal (z-score),[12],-0.275
same,glycan array binding signal (z-score),[13],0.222
same,glycan array binding signal (z-score),[14],-0.412
same,glycan array binding signal (z-score),[15],-0.465
same,glycan array binding signal (z-score),[16],-0.412
same,glycan array binding signal (z-score),[17],5.81
same,glycan array binding signal (z-score),Fuc(a1-2)Gal6S(b1-4)Glc,0.184
same,glycan array binding signal (z-score),[18],0.194
same,glycan array binding signal (z-score),Fuc(a1-2)[Gal(a1-3)]Gal,-0.315
same,glycan array binding signal (z-score),[19],0.084
same,glycan array binding signal (z-score),[20],-0.222
same,glycan array binding signal (z-score),[21],-0.442
same,glycan array binding signal (z-score),[22],-0.5
same,glycan array binding signal (z-score),[23],-0.374
same,glycan array binding signal (z-score),[24],-0.481
same,glycan array binding signal (z-score),[25],-0.276
same,glycan array binding signal (z-score),[26],-0.296
same,glycan array binding signal (z-score),[27],-0.479
same,glycan array binding signal (z-score),[28],-0.355
same,glycan array binding signal (z-score),[29],-0.064
same,glycan array binding signal (z-score),[30],-0.461
same,glycan array binding signal (z-score),[31],-0.341
same,glycan array binding signal (z-score),[32],-0.094
same,glycan array binding signal (z-score),[33],-0.324
same,glycan array binding signal (z-score),[34],-0.501
same,glycan array binding signal (z-score),[35],-0.409
same,glycan array binding signal (z-score),[36],-0.054
same,glycan array binding signal (z-score),[37],-0.024
same,glycan array binding signal (z-score),[38],-0.415
same,glycan array binding signal (z-score),[39],-0.174
same,glycan array binding signal (z-score),[40],-0.082
same,glycan array binding signal (z-score),[41],-0.225
same,glycan array binding signal (z-score),[42],-0.542
same,glycan array binding signal (z-score),[43],-0.508
